Measurements published in PMC4336329 (PLoS ONE, 2015).
The campaign covered roughly 310,000 compounds. About 2,200 (0.71%) showed an effect of 50% or more. The effect is printed as a negative number. Some of the results follow.

molecular target: human ether-à-go-go-related gene (hERG) potassium channel (human, UniProt Q12809); test: primary screen, population patch clamp on CHO cells stably expressing hERG
Sequence (Q12809 whole entry, looked up): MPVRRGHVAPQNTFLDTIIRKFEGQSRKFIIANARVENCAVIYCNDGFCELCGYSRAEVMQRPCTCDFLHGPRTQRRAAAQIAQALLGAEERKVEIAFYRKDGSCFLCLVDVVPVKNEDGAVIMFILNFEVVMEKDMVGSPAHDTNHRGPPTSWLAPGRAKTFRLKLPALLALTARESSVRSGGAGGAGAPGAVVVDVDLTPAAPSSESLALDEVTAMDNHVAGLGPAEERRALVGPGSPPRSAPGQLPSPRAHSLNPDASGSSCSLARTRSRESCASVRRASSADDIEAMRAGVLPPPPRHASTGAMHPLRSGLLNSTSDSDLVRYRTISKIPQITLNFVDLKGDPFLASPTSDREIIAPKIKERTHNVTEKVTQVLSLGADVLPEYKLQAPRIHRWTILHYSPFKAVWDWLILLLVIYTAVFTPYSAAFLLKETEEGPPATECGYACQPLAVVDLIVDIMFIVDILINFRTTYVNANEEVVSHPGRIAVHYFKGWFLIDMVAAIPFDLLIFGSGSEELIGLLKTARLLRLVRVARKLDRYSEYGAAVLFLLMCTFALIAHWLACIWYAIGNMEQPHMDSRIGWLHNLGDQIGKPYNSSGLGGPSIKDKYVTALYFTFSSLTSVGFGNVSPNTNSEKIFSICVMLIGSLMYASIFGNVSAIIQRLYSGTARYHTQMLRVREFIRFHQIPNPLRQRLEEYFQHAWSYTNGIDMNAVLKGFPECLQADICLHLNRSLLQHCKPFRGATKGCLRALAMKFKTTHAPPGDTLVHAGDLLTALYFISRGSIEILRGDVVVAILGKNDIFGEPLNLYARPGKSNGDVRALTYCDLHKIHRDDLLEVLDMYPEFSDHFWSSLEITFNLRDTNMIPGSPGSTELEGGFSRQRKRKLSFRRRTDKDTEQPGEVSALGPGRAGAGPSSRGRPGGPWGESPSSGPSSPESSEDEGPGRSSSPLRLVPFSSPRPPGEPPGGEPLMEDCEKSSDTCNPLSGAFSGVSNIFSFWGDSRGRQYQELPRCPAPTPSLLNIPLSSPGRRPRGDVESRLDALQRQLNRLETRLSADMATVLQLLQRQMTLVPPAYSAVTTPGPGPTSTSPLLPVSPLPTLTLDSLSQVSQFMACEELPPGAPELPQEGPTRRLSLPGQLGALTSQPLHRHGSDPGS

Row | SMILES | hERG current change (%, negative = inhibition) at 1uM [%]
1 | CCCN1C(=O)c2cccc3c(N4CCCCC4)ccc(c23)C1=O | 2.89
2 | O=C(COc1ccccc1)NNC(=O)c1cccs1 | 22.5
3 | COc1ccc(N2C(=O)CC(N3CCCC4CCCCC43)C2=O)cc1 (centres unmarked) | 9.52
4 | COC(=O)C1=CN(Cc2ccc(OC)c(OC)c2)C=C(C(=O)OC)C1c1cccc(O)c1 | 8.46
5 | CN(CCOc1ccccc1)C(=O)CCc1nc2sc3c(c2c(=O)[nH]1)CCCC3 | 18.1
6 | O=C(NC1=NCCS1)C1CC(=O)N(c2ccc(F)cc2)C1 (centres unmarked) | 2.82
7 | Cc1ccc(-n2nc3c(c2NC(=O)c2ccc4c(c2)OCO4)CS(=O)(=O)C3)cc1 | 19.4
8 | COc1ccc(NC(=O)CSc2ncnc3c2cnn3Cc2ccccc2)cc1OC | 20
9 | COc1ccccc1Cn1c(CO)nc2ccccc21 | 11.3
10 | COc1ccc(C(C(=O)NC(C)(C)C)N(C(=O)CNC(=O)c2cccs2)c2ccc(C(C)C)cc2)cc1OC (centres unmarked) | 11.2
11 | O=C(/C=C/c1ccc(F)cc1)NC(=S)Nc1ccccc1C(=O)NC1CCCCC1 | 11
12 | Cc1ccc(Cl)cc1N1CCN(C(=O)CCS(=O)(=O)c2ccc3c(c2)NC(=O)CO3)CC1 | 13.8
13 | CCOc1cc(CN2CCCC(N3CCc4ccccc4C3)C2)ccc1O (centres unmarked) | 8.74
14 | Cc1ccc(-c2c3c(=O)n(C)c(=O)n(C)c3cn2-c2ccccc2O)cc1 | 4.06
15 | O=c1c2c3nc4ccccc4nc3n(CC3CCCO3)c2ncn1CCc1ccccc1 (centres unmarked) | 7.54
16 | Cn1ncc(Cl)c1C(=O)N1CCN(S(=O)(=O)c2ccc(Cl)s2)CC1 | -6.93
17 | Cl.O=C(CN1CCN(C2CCCCC2)CC1)Nc1ccccc1N1CCCCC1 | -44.2
18 | CNC(=O)CCCCC(=O)N/N=C/c1ccc(Cl)cc1Cl | 11.4
19 | COC(=O)c1[nH]c2ccc(C)cc2c1NC(=O)CN1CCc2cc(OC)c(OC)cc2C1 | 11.3
20 | Cc1ccc(OCC(=O)OC2CCCN(C)C2)cc1.Cl (centres unmarked) | 13.9
21 | CCOC(=O)[C@H]1[C@H]2COc3ccc(C)cc3[C@@H]2N2C(=O)CN(Cc3ccc(F)cc3)C(=O)[C@@]12C | 8.22
22 | CC(=O)N1CCN(C23CC4CC(CC(C4)C2)C3)CC1 | 11.9

Row | SMILES | hERG current change (%, negative = inhibition) at 1uM [%]
23 | O=C(CCN1CCN(c2ccc(Cl)cc2)CC1)Nc1nccs1 | 8.13
24 | COc1ccccc1C(=O)NC(=O)CSc1nnc(C)s1 | 14.5
25 | CC(=O)N(C(C)=O)n1c(/C=C/c2ccc([N+](=O)[O-])cc2)nc2ccccc2c1=O | 3.69
26 | CCOc1ccc2nc(N3CCC(C(=O)N4CCC5(CC4)OCCO5)CC3)sc2c1 | 6.77
27 | CC1(C)Oc2ccc3ccc(=O)oc3c2/C(=C/Nc2ccc(O)cc2)C1=O | 17.9
28 | CCCCOc1ccc(-c2nnn(CCC(=O)N3CCOCC3)n2)cc1 | -3.44
29 | CCN(CC)C(=O)N1c2ccccc2Sc2ccccc21 | 6.83
30 | N#CC(c1ccccc1F)(c1ncc(C(F)(F)F)cc1Cl)N1CCOCC1 (centres unmarked) | -4.1
31 | COC(=O)c1c(NC(=O)C(=O)N2CCOCC2)sc2c1CCC2 | 23.2
32 | COc1ccc(NC(=O)c2csc(Cc3ccc(Cl)cc3)n2)cc1 | 12.8
33 | CCC1CCCCN1C(=O)CSc1nc2c(c(=O)n(C)c(=O)n2C)n1C (centres unmarked) | 3.72
34 | NNC(=O)c1ccc(COc2ccc3c(c2)CCC3)cc1 | 5.57
35 | CC(C)n1c(NCc2cccs2)nc2ccccc21 | -1.27
36 | CC(=Nc1ccccc1C)C1=C(O)CSC1=O | 4.34
37 | Cc1cccc(OC(C)C(=O)N/N=C\c2ccncc2)c1 (centres unmarked) | 15.5
38 | CCC(C)NC(=O)CCc1c(C)nc2nc(-c3cc(OC)cc(OC)c3)nn2c1C (centres unmarked) | -4.72
39 | Cc1cccc(C)c1NC(=O)NN1C(C)CCCC1C (centres unmarked) | 12
40 | COc1ccc(S(=O)(=O)N2CCCCCC2)cc1C(=O)N(C)Cc1cccc(OC)c1OC | 0.302
41 | Cc1cc(C)cc(NC(=O)COc2coc(CN3CCc4ccccc4C3)cc2=O)c1 | 5.39
42 | CCOc1ccc(/C=C2/Sc3ccc(C(=O)N4CCOCC4)cc3N(C)C2=O)cc1OC | 10.9
43 | NC(=O)c1ccc(Oc2ccc(-c3nnco3)cc2)c([N+](=O)[O-])c1 | 13.4
44 | CCN1CCN(C(=O)c2cc(=O)c3cc(C)ccc3o2)CC1 | 6.16

Row | SMILES | hERG current change (%, negative = inhibition) at 1uM [%]
45 | O=C(Nc1nc(-c2cccc([N+](=O)[O-])c2)cs1)C(c1ccccc1)c1ccccc1 | 15.3
46 | Cc1ccccc1NC(=O)Nc1ccc2c(c1)OCO2 | 3.69
47 | Nc1ccc2nn(-c3ccc(Cl)cc3)nc2c1 | 0.522
48 | C/C(=N\NC(=O)c1cccc(S(=O)(=O)N2CCOCC2)c1)c1ccc(OCC(=O)N(C)C)cc1 | 19.3
49 | COc1ccc(/C=N/NS(=O)(=O)c2ccc(C)cc2)cc1OC(=O)c1ccccc1 | 5.96
50 | COc1cccc(C(=O)NN2CC(O)=C(c3nc4ccccc4s3)C2=N)c1 | 20.9
51 | COc1ccc2nc(N(Cc3ccccc3)C(=O)CCNC(C)=O)sc2c1 | 7.46
52 | COc1ccccc1Nc1nc2c(C)cccc2cc1C#N | 0.996
53 | Cc1ccc(S(=O)(=O)c2cc3c(=O)n4cccc(C)c4nc3n(CC3CCCO3)c2=N)cc1C (centres unmarked) | 12.9
54 | CCOc1ccc(NC(=O)CN2C(=O)NC(C)(c3ccc(OC(F)F)cc3)C2=O)cc1 (centres unmarked) | 6.18
55 | CCOC(=O)Nc1ccc2c(COC(=O)CNS(=O)(=O)c3cccc(Br)c3)cc(=O)oc2c1 | 12.8
56 | CCCn1c(CCc2ccccc2)n[nH]c1=S | 4.75
57 | CCCN(CC(=O)Nc1ccccc1OC)C(=O)CCCN1C(=O)c2ccccc2C1=O | 1.67
58 | O=C(Cn1cnc2sc(-c3ccccc3)cc2c1=O)NCc1ccccc1 | 9.67
59 | CCOC(=O)c1cc(C(=O)Nc2sc3c(c2C#N)CCCC3)nn1C | 15.1
60 | C=CCn1c(=S)[nH]c2cc(C(=O)Nc3ccc(F)cc3)ccc2c1=O | 7.97
61 | Cc1cc(NC(=O)CCN2CCN(C)CC2)ccc1Br.Cl | 2.11
62 | Cc1oc(-c2ccccc2Cl)nc1CS(=O)CC(=O)NCc1ccc(Cl)cc1 (centres unmarked) | 0.0397
63 | CN(C)c1ccc(/C=N/NC(=O)CN(c2cccc(Cl)c2)S(C)(=O)=O)cc1Br | 11.9
64 | O=C1CN(C(=O)CNC(=O)c2ccc(Cl)cc2Cl)CCN1 | 10.9
65 | CSCCC(NC(=O)COc1ccccc1)C(=O)OCCOc1ccc(Br)cc1 (centres unmarked) | -3.38
66 | COC(=O)c1ccc(COc2ccc(/C=N/O)cc2OC)o1 | 14.5

Row | SMILES | hERG current change (%, negative = inhibition) at 1uM [%]
67 | O=C(c1ccccc1)c1nnc(-c2ccncc2)o1 | 3.87
68 | N#Cc1cn(CC(=O)N2CCCC2)c2ccccc12 | 12.1
69 | Cc1cccc(C(=O)N(Cc2nc3ccccc3c(=O)[nH]2)C2CCCCC2)c1 | 3.32
70 | CCOc1ccc(/C=N/NC(=O)c2nnn(-c3nonc3N)c2CN2CCC(C)CC2)cc1 | 4.5
71 | CCC(Oc1ccc(Cl)cc1)C(=O)N1CC(=O)Nc2ccccc21 (centres unmarked) | 7.39
72 | COc1ccc(C(=O)NC2CC2)cc1OC1CCN(Cc2ccc(F)cc2F)CC1 | -75.1
73 | CS(=O)(=O)N1CCC(NC(=O)Cc2ccccc2)CC1 | 13.2
74 | Cc1ccc2cc(/C=C3\N=C(c4ccccc4)OC3=O)c(N3CCOCC3)nc2c1 | 14.5
75 | CCCCC1=CC2=C(c3ccco3)C(=O)C(C)(OC(=O)c3ccc(OC)cc3)C(=O)C2=CN1c1ccc(OC)cc1 (centres unmarked) | 16
76 | COc1ccc(CCNC(=S)N2CCN(S(=O)(=O)c3ccc(F)cc3)CC2)cc1 | -2.8
77 | COc1ccc(CNCc2cccn2C)cc1.Cl | 6.67
78 | CCN(CC(=O)NCc1cccs1)C(=O)/C=C/c1cccc(OC)c1OC | 5.63
79 | O=C(O)C1CCCN(C(=O)c2cccc3ccccc23)C1 (centres unmarked) | 8.46
80 | CC(=O)c1cc(CN2CCC(n3nccc3NC(=O)c3ccccc3)CC2)cs1 | -1.13
81 | CC(C)(C)NS(=O)(=O)c1ccc(C(=O)Nc2ccc3c(c2)OCO3)cc1 | 10.4
82 | COc1ccc(C2(c3ccc(OC)cc3)NC(=O)N(CC(=O)NCC(C)c3ccccc3)C2=O)cc1 (centres unmarked) | 9.44
83 | COc1cccc(C(c2sc3nc(C)nn3c2O)N2CCN(c3ccccc3F)CC2)c1 (centres unmarked) | 10
84 | CCOC(=O)N1CCN(c2nc3ccccn3c(=O)c2C=O)CC1 | 5.93
85 | CC(CN1CCCC1)OC(=O)c1ccc(F)cc1.Cl (centres unmarked) | 9.21
86 | O=C(OCC#CCSc1nnc(-c2ccccc2)o1)c1cc2ccccc2o1 | 8.81
